Data published in PubChem BioAssay AID1476 (National Center for Advancing Translational Sciences (NCATS), 2009).
Values joined by “and” are separate entries in the source; they are usually repeats but may differ in a detail not shown here. Identical values can stand only once. Screen size: about 200,000 compounds; about 4,500 (2.2%) were called active. Inconclusive means that the source gave no clear call. Such entries were picked first, then a sample of the others. Calls come from the whole dose curve; as a rule, active = well fitted inhibition curve with a large enough effect; inconclusive = small, poorly fitted or top-dose-only effect, or effect the other way; inactive = flat fitted curve, though single readings scatter. Potencies beside an inconclusive call are fits to weak or partial responses and may not hold up.

Target: Cruzipain (Trypanosoma cruzi) (UniProt P25779)
Assay: qHTS Assay for Promiscuous and Specific Inhibitors of Cruzain (without detergent); note: nearly all actives have a fitted effect of over 40% in size;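 for max response, negative = inhibition: plate controls were enzyme without inhibitor for no effect and buffer without enzyme for full effect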
Conditions: purified cruzain, Z-FR-AMC fluorescence, no detergent
Procedure, shortened: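 Detergent-free condition (0.00005% Triton X-100) in acetate buffer pH 5.5 with DTT. 1.5 nM enzyme and compound were pre-mixed 15 min, then 2 uM Z-FR-AMC substrate added; reaction progress from fluorescence change between first and third reads (60 s).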
Potency is the fitted concentration of half-maximal effect; tags give direction and shape of the fitted curve.

Chain of UniProt P25779 (P25779 whole entry, looked up): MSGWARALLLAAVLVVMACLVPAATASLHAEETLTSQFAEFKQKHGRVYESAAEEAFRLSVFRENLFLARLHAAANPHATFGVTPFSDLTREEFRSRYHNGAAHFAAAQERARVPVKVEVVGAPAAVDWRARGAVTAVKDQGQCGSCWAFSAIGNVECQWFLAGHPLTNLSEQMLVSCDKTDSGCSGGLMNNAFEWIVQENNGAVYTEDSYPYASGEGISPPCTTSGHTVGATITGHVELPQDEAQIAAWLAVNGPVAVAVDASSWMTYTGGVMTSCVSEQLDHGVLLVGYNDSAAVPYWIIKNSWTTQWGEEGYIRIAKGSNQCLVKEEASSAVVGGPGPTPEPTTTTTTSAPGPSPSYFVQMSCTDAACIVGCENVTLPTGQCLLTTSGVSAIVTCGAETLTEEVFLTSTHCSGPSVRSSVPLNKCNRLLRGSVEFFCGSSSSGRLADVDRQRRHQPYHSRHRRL

SMILES	Potency	max response, negative = inhibition
CC(C)[C@H](CO)Nc1nc(Nc2cccc(Cl)c2)c2ncn(C(C)C)c2n1	inconclusive: 25.1 µM [activator, partial curve]	
Cc1cc(NCCOCCO)n2ncc(-c3ccc(Cl)cc3)c2n1	inconclusive: 31.6 µM [activator, single point]	
CCOC(=O)c1ccc(Nc2ccc(-c3ccc(OC)c(OC)c3)nn2)cc1	inconclusive: 20 µM [activator, single point]	
CC(C)(C)c1nc(NCC2CCCO2)c2nnn(Cc3ccccc3)c2n1 (centres undefined)	inconclusive: 25.1 µM [activator, single point]	
COc1cc(NC(=O)c2cc3c(s2)-c2ccccc2OC3)cc(OC)c1OC	inconclusive: 31.6 µM [activator, single point]	
Clc1ccc(-c2csc3ncnc(N4CCc5ccccc5C4)c23)cc1	inconclusive: 39.8 µM [inhibitor, single point]	
COc1ccc(C(=O)/C=C/Nc2cccc(C)n2)cc1OC	inconclusive: 31.6 µM [activator, single point]	
CCN1c2ccccc2-c2nc(SCC(=O)NCc3ccccc3)ncc2S1(=O)=O		inactive: -3.64%
CCn1cc(C(=O)N2CCN(c3cccc(Cl)c3)CC2)c2cc(OC)c(OC)cc2c1=O	inconclusive: 25.1 µM [activator, partial curve] and inconclusive: 39.8 µM [activator, single point]	
COc1cc(NC(=O)COC(=O)c2ccc(C)c(S(=O)(=O)N3CCCCC3)c2)c(C)cc1[N+](=O)[O-]	inconclusive: 39.8 µM [inhibitor, single point]	
O=C(c1cc(C(F)(F)F)cc(C(F)(F)F)c1)N1CCC2(CC1)CN(c1ncccn1)C2	inconclusive: 39.8 µM [activator, single point]	
CCc1ccccc1OCCOc1ccc(C)cc1OC		inactive: 11.5%
Cc1ccc(C)c(N2CCN(C(=O)CCc3nnc4n(CC(C)C)c(=O)c5ccccc5n34)CC2)c1		inactive: 4.5%
CCOC(=O)c1ccc(NC(=O)CSc2nc(C)nc3c2c(=O)n(C)c(=O)n3C)cc1	inconclusive: 39.8 µM [activator, single point]	
CC(=O)c1ccc2c(c1)C1C(Cl)C(Sc3ccccc3[N+](=O)[O-])CC1C(c1ccccc1[N+](=O)[O-])N2 (centres undefined)	active: 3.16 µM	
Cc1ccc(C(=O)COC(=O)CNS(=O)(=O)c2ccccc2)cc1[N+](=O)[O-]	inconclusive: 31.6 µM [inhibitor, single point]	
O=C(CN1C(=O)COc2ccc(S(=O)(=O)N3CCOCC3)cc21)N1CCN(c2cccc(Cl)c2)CC1	inconclusive: 31.6 µM [activator, single point]	
COc1ccc(NC(=O)c2ccc3c(SCC(=O)O)c4c(nc3c2)CCCC4)c(OC)c1	inconclusive: 39.8 µM [activator, single point]	
COc1ccc2c(c1)C(=O)[C@@H](OC(=O)NCCOc1ccccc1)[C@H](c1ccc(OC)c(Br)c1)O2		inactive: -4.63%
COC(=O)Oc1nsnc1N1CCOCC1		inactive: -6.68%
CCN(CC)C(=O)Cn1c(=O)n(-c2ccc(C)c(C)c2)c(=O)c2c3c(sc21)CCCCC3		inactive: 1.2%
CCOC(=O)c1ccc(NC(=O)CCn2c(=O)c3cccn3c3cccnc32)cc1		inactive: 5%

SMILES	Potency	max response, negative = inhibition
Cc1ccccc1CS(=O)(=O)CC1(O)CCN(C(=O)c2cccc(C(F)(F)F)c2)CC1	inconclusive: 31.6 µM [activator, single point]	
COc1ccc(NC(C)=O)cc1CNC(=O)COc1c(C)c(C)cc(C)c1C	inconclusive: 39.8 µM [activator, single point]	
CCCCS(=O)(=O)CC(O)CSc1nc(-c2ccc(C)cc2)cc(-c2ccccc2)c1C#N (centres undefined)		inactive: -23.1%
CCOc1cccc(C2c3[nH]c4ccccc4c3CCN2C(=O)CSCc2ccc(F)cc2)c1 (centres undefined)		inactive: -2.52%
Cc1snc2sc(C(=O)c3ccc(Br)cc3)c(N)c12	active: 15.8 µM	
CCCOc1ccc(-c2nonc2NC(=O)c2oc3ccc(Cl)cc3c2C)cc1OCCC		inactive: -0.607%
Cc1ccc(-n2c(-c3ccccc3)nnc2-c2cccs2)cc1	inconclusive: 31.6 µM [inhibitor, single point]	
CCOc1ccc(S(=O)(=O)c2cn(Cc3ccccc3C)c3ccc(OC)cc3c2=O)cc1	inconclusive: 7.94 µM [activator, single point]	
O=C(CN1c2ccccc2S(=O)(=O)c2ccccc21)Nc1ccccc1Cl	inconclusive: 31.6 µM [inhibitor, single point]	
CC[C@H]1C2=C3C(CC[C@H]4C(OC)OC[C@](C)([C@@H]34)N(C(=O)OC(C)(C)C)C2)C(CO)C1CO (some centres undefined)	inconclusive: 31.6 µM [activator, single point]	
COCCn1c(=O)c(C)nc2cnc(Oc3cccc(Cl)c3)nc21		inactive: 18.8%
COc1ccc(CCNC(c2ccc(F)cc2)c2nnc(-c3ccccc3Cl)o2)cc1OC (centres undefined)	inconclusive: 39.8 µM [activator, single point]	
Cc1nn(C)c2c1c(C(F)(F)F)cc(=O)n2C(C)C(=O)NCCc1ccccc1 (centres undefined)	inconclusive: 12.6 µM [activator, partial curve]	
CCOC(=O)C1=C(C)NC(=O)NC1c1cn(-c2ccccc2)nc1-c1ccc(OC(C)C)cc1 (centres undefined)		inactive: 20.3%
C=CCN(CC=C)c1nc2ccccc2nc1C(C#N)C(=O)OCCOC (centres undefined)	inconclusive: 39.8 µM [activator, single point]	
O=C(c1csnn1)N1CCC2(CCCN(c3ccccn3)C2)CC1		inactive: -9.66%
COC(=O)c1cc(OC)c(OC)cc1NC(=O)c1cccnc1		inactive: -4.63%
O=C(CSc1nc(-c2cccs2)nc2cc(=O)[nH]n12)Nc1cccc(C(F)(F)F)c1	inconclusive: 7.94 µM [activator, partial curve]	
CCOc1ccc(C(=O)N(Cc2cc(OC)c(OC)c(OC)c2)c2ccccn2)cc1		inactive: 27.4%
COc1cc(/C=C/c2nc(-c3ccccc3O)n[nH]2)cc(OC)c1OC	inconclusive: 39.8 µM [activator, single point]	
O=C(NCc1cn(-c2ccccc2)nc1-c1ccccc1)c1cc([N+](=O)[O-])cc([N+](=O)[O-])c1	inconclusive: 39.8 µM [inhibitor, single point]	
Cc1cc(OCCCn2c(CCNC(=O)C3CCCCC3)nc3ccccc32)ccc1Cl		inactive: 6.62%

SMILES	Potency	max response, negative = inhibition
COc1ccc2c(Sc3ccc(C)cc3)c(C(=O)NCCc3ccccc3)[nH]c2c1	active: 15.8 µM	
COc1ccccc1N1C(=O)c2ccccc2NC1C(OC)OC (centres undefined)	inconclusive: 25.1 µM [inhibitor, single point]	
O=C(NC(=S)Nc1ccc2c(c1)OCCO2)c1cccc2ccccc12	inconclusive: 31.6 µM [inhibitor, single point]	
CCOC(=O)c1cnc(SCC(=O)Nc2ccc(N3CCOCC3)cc2)nc1N		inactive: -5.66%
CS(=O)(=O)c1ccc(C2=C(c3ccccc3)C(=O)OC2)cc1	inconclusive: 31.6 µM [activator, single point]	
CNc1ccc(/C=C/C(=O)c2ccc3c(c2)OCCO3)cc1[N+](=O)[O-]	inconclusive: 25.1 µM [inhibitor, single point]	
O=C(c1ccc(-n2cnnn2)cc1)N1CCN(C(c2ccccc2)c2ccccc2)CC1	inconclusive: 25.1 µM [activator, single point]	
CCOC(=O)N1CCC(NC(=O)CSCc2cnn(-c3ccccc3)c2-n2cccc2)CC1	inconclusive: 31.6 µM [activator, single point]	
COc1ccc(C2CC(C(F)(F)F)n3nc(C(=O)NCc4cn(C)nc4C)c(Cl)c3N2)cc1 (centres undefined)	inconclusive: 31.6 µM [activator, single point]	
COc1ccc(-c2cn3c(n2)sc2cc(C(=O)NC4CCCCCC4)ccc23)cc1		inactive: -7.78%
COc1ccc(C2C=C(c3cccs3)Nc3nc(CCCO)nn32)cc1 (centres undefined)	inconclusive: 20 µM [activator, partial curve]	
COc1cccc(OC)c1OCCOc1ccccc1OC(C)C	inconclusive: 39.8 µM [inhibitor, single point]	
O=C(CCN1C(=O)/C(=C/C=C/c2ccccc2)SC1=S)Nc1nccs1	active: 3.16 µM	
CCOCCc1nn2c(=O)cc(COC(=O)COc3ccccc3Cl)nc2s1		inactive: 10.4%
O=C(NS(=O)(=O)c1ccccc1)c1ccccc1		inactive: -2.94%
COc1ccccc1CNC(=O)CCc1c(C)nc2cc(-c3ccccc3OC)nn2c1C	inconclusive: 39.8 µM [activator, single point]	
NNC(=O)COc1ccc(-c2n[nH]c(C(F)(F)F)c2-c2ccc(Br)cc2)c(O)c1	inconclusive: 39.8 µM [activator, single point]	
COc1ccc(CNC(=O)Cn2ccc3cc(S(=O)(=O)N4CCCCC4)ccc32)c(OC)c1	inconclusive: 20 µM [inhibitor, single point]	
O=C(Oc1cc(OC(=O)c2ccccc2)c2c(c1)OC(c1ccc(OC(=O)c3ccccc3)c(OC(=O)c3ccccc3)c1)[C@@H](OC(=O)c1ccccc1)C2)c1ccccc1 (some centres undefined)	inconclusive: 1 µM [inhibitor, full curve]	
O=C(Cn1cnc2sc(-c3ccccc3)cc2c1=O)NCc1ccccc1	active: 15.8 µM	
